In PubChem BioAssay AID1030 (National Center for Advancing Translational Sciences (NCATS), 2008):
About 16,000 (7.3%) of roughly 220,000 compounds were called active. Inconclusive means that the source gave no clear call. Such entries were picked first, then a sample of the others. Calls come from the whole dose curve; as a rule, active = well fitted inhibition curve with a large enough effect (not every such curve was filed as active); inconclusive = small, poorly fitted or top-dose-only effect, or another doubt; inactive = no such curve, though single readings can be large or run the other way. Potencies beside an inconclusive call are fits to weak or partial responses and may not hold up.

target: Aldehyde dehydrogenase 1A1 (Homo sapiens) (UniProt P00352); assay: qHTS Assay for Inhibitors of Aldehyde Dehydrogenase 1 (ALDH1A1); conditions: Purified ALDH1A1, NADH fluorescence, propionaldehyde substrate; series mostly up to 75.3 µM; activity, negative = inhibition: at the top concentration;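 for activity, negative = inhibition: plate controls were no enzyme wells and a reference inhibitor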
Potency is the fitted concentration of half-maximal effect; tags give direction and shape of the fitted curve.

Chain of UniProt P00352 (P00352 whole entry, looked up): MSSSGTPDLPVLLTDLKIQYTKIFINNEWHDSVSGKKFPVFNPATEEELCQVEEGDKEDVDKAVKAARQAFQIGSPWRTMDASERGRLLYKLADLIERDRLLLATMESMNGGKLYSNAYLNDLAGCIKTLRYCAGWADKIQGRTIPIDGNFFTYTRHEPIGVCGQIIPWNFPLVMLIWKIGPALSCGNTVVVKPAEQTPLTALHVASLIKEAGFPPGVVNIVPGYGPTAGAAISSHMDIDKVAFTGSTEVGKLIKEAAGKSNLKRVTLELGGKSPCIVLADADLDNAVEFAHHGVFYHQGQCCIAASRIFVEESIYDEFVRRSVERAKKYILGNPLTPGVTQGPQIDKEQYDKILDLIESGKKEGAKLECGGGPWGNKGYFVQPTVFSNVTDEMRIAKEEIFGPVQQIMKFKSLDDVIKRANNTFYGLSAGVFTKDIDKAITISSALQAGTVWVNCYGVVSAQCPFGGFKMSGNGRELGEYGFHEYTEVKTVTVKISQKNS

Potency, active:
Cc1ccccc1C(=O)N1CCC(C(=O)Nc2ccc(S(=O)(=O)N(C)C(C)C)cc2)CC1 12.6 µM
COc1ccc(Cn2nnnc2C(c2cc(OC)ccc2OC)N2CCC(C(N)=O)CC2)cc1 (stereo not given) 14.1 µM
CC(=O)Nc1ccc(OS(=O)(=O)c2ccc(C(C)(C)C)cc2)cc1 12.6 µM
CC(C)CCN1CN(S(=O)(=O)c2cccs2)c2nc3ccccc3nc21 28.2 µM
C=CCn1c(CNC(=O)c2ccco2)nnc1SCC(=O)N1c2ccccc2Sc2ccccc21 0.562 µM
CN1CCS/C1=C/C=C1/SC(=S)N(Cc2ccccc2)C1=O 1 µM

Potency, inconclusive:
C=CCn1c(=NC(=O)c2cccs2)sc2cc(NC(C)=O)ccc21 37.7 µM [inhibitor, single point]
O=C(N=c1ccn(-c2nc3ccccc3nc2NS(=O)(=O)c2ccccc2)cc1)c1cccs1 3.16 µM [inhibitor, single point]
CCn1c(=O)c([N+](=O)[O-])c(Cl)c2ccccc21 20 µM [inhibitor, partial curve]
CCn1c(=O)cc(OCC(=O)N2CCCCCC2)c2ccccc21 39.8 µM [inhibitor, single point]
Cc1cc(C(F)(F)F)nn1CC(=O)NNC(=S)Nc1ccc(Cl)cc1 39.8 µM [inhibitor, single point]
CCn1c(-c2ccccc2)c(C(=O)CC#N)c2ccccc21 8.91 µM [inhibitor, single point]
O=c1c2[nH]c3ccccc3c2ncn1Cc1ccco1 22.4 µM [inhibitor, single point]
COc1cccc(N2CCN(CC(=O)c3c(C)[nH]c4ccccc34)CC2)c1 39.8 µM [inhibitor, single point]
O=C(COc1ccccc1)Nc1cccc(-c2nc3cc4ccccc4cc3[nH]2)c1 3.16 µM [inhibitor, full curve]
CC1CCN(C(c2ccc(N(C)C)cc2)c2nnnn2Cc2ccc(F)cc2)CC1 (stereo not given) 14.1 µM [inhibitor, partial curve]
COc1ccc(-c2nn(C)c3sc(C(=O)NCc4ccco4)cc23)cc1OC 31.6 µM [inhibitor, single point]
CC(C)(C)c1ccc(O)c(CN(Cc2c(O)ccc3ccccc23)C2CCCCC2)c1 8.91 µM [inhibitor, single point]
CCCn1c(-c2ccc(F)cc2)nc2c(NC(C)CCCN(CC)CC)nc(C)nc21 (stereo not given) 28.2 µM [inhibitor, partial curve]
CCN(C1CCCCC1)S(=O)(=O)c1ccc(S(=O)(=O)N2CCN(CCC#N)CC2)cc1 11.2 µM [inhibitor, partial curve]
CN(C)c1ccc(-c2noc(C3CCN(S(=O)(=O)c4cccc(Cl)c4)CC3)n2)cc1 10 µM [inhibitor, partial curve]
CCOc1ccc(-c2nc(C#N)c(NCC(C)C)o2)cc1 22.4 µM [inhibitor, partial curve]
O=C(c1ccco1)N1CCN(C(c2ccc(F)cc2)c2nnnn2CC2CCCO2)CC1 (stereo not given) 39.8 µM [inhibitor, single point]
COCCCNC(=S)N/N=C/c1ccc(N(C)C)cc1Cl 39.8 µM [inhibitor, single point]
CCC(C)NC(=O)/C(=C/c1ccco1)c1ccccc1 (stereo not given) 8.91 µM [inhibitor, single point]
O=C(CCN1C(=O)COc2ccccc21)NCc1ccco1 39.8 µM [inhibitor, single point]
COc1ccc(/C=C/CN2CCCC(C(=O)c3cc(F)ccc3F)C2)cc1 (stereo not given) 44.7 µM [inhibitor, single point]
COc1cc2c(c(OC)c1OC)C(c1ccc3c(c1)OCO3)CC(=O)O2 (stereo not given) 50.1 µM [inhibitor, single point]
CC(=O)/C(=C/c1ccc(N(C)C)cc1)C(=O)c1ccccc1 25.1 µM [inhibitor, single point]
N#Cc1cccc(-n2nnnc2-c2ccccn2)c1 39.8 µM [inhibitor, single point]
O=C(c1ccccc1Cl)N1CCC(O)(c2cccnc2)CC1 8.91 µM [inhibitor, single point]
CCCn1c(SCC(=O)N2CC(=O)Nc3ccccc32)nc2ccccc21 25.1 µM [inhibitor, single point]
O=C(NCCN1CCc2ccccc2C1)C1CCN(S(=O)(=O)N2CCC3(CC2)OCCO3)CC1 39.8 µM [inhibitor, single point]
COc1cccc(Cn2c(=O)c(-c3ccc(F)cc3)nc3cnc(N4CCNCC4)nc32)c1 20 µM [inhibitor, partial curve]
CN(C)CCCNc1oc(-c2ccccc2)nc1C#N 25.1 µM [inhibitor, partial curve]
O=C(Nc1ccc2oc(-c3ccccc3Cl)nc2c1)c1ncn[nH]1 35.5 µM [inhibitor, single point]
COc1ccc(-n2c(=O)c(-c3cn(C)c4ccccc34)nc3cnc(N4CCOCC4)nc32)cc1 0.199 µM [inhibitor, partial curve, poor fit]
NC(=O)c1c(-c2ccc(Cl)cc2Cl)csc1NC(=O)Cc1ccccc1 39.8 µM [inhibitor, single point]
N#Cc1cc(C(=O)c2cc(Cl)ccc2O)cn(CC2CCCO2)c1=O (stereo not given) 31.6 µM [inhibitor, partial curve]
CC1CCC(NS(=O)(=O)c2ccc3c(c2)n(C)c(=O)c(=O)n3C)CC1 (stereo not given) 25.1 µM [inhibitor, partial curve]
CCOc1ccc(NC(=O)CSc2nc3ccccc3c(=O)n2Cc2cccs2)cc1 0.891 µM [inhibitor, partial curve]
COc1ccc(/C(O)=C2/C(=O)C(=O)N(CCCN(C)C)C2c2ccc(C)o2)cc1Cl (stereo not given) 25.1 µM [inhibitor, single point]
Cc1c(/C=C(\CC(=O)O)c2nc3ccccc3s2)cc(C#N)n1C 35.5 µM [inhibitor, single point]
COc1ccc(NC(=O)C(=O)NCCCn2ccnc2)cc1 39.8 µM [inhibitor, single point]
Cn1cc(SCC(N)=O)c2ccccc21 17.8 µM [inhibitor, single point]
Cc1cccc(C)c1NC(=O)CSc1nnc(-c2ccco2)n1N 28.2 µM [inhibitor, single point]
COc1ccc(-c2nc(CS(=O)CC(=O)NCc3ccco3)c(C)o2)cc1OC (stereo not given) 39.8 µM [inhibitor, single point]
COc1cc(-c2nn3c(Cc4ccccc4)nnc3s2)cc(OC)c1OC 10 µM [inhibitor, partial curve]
Cc1cc(/C=N/NC(=O)c2cccc([N+](=O)[O-])c2)c(C)n1-c1ccc(Cl)cc1Cl 31.6 µM [inhibitor, single point]
Cc1ccc(C(=O)Nc2cnc3ccccn3c2=O)cc1 20 µM [inhibitor, partial curve]
O=S(=O)(Nc1ccccc1N1CCCCC1)c1ccc(Cl)s1 44.7 µM [inhibitor, single point]
CCCCNS(=O)(=O)c1ccc2nc(SCC(=O)c3ccc(C#N)cc3)[nH]c2c1 37.7 µM [inhibitor, single point]

activity, negative = inhibition, inactive:
COc1cc2c(C(=O)N3CCN(c4ccccc4C)CC3)c(C)oc2cc1Br 7.81%
Nc1c(S(=O)(=O)c2cccc(Cl)c2)c2nc3ccccc3nc2n1/N=C/c1ccc(O)c(O)c1 0.15%
CCN(CC(=O)NC(C)(C)C)C(=O)C(c1ccccc1)c1ccccc1 3.75%
Cc1ccc(OC(C)C(=O)N=Nc2c(O)[nH]c3ccc([N+](=O)[O-])cc23)cc1 (stereo not given) 1.31%
COc1ccc(N(C(C)C(=O)N2CCC(Cc3ccccc3)CC2)S(C)(=O)=O)cc1 (stereo not given) -13.1%
N/C(CN1CCCC1=O)=N\OC(=O)c1ccccc1Cl 17%
CC(CCc1ccccc1)NC(=O)Cc1ccccc1 (stereo not given) -2.51%
Cc1ccc(CNCC2CCCO2)o1 (stereo not given) 0.578%
Cc1cc(C)c(C#N)c(SCc2ccc([N+](=O)[O-])cc2)n1 2.17%
CCOC(=O)CSc1ccc(S(=O)(=O)N2CCCCC2)cc1[N+](=O)[O-] -10.6%
COc1cc(CC(=O)Nc2nc(C)cs2)cc(OC)c1OC 10.3%
COc1cc(C2C(C(C)=O)=C(O)C(=O)N2CCN(C)C)ccc1O (stereo not given) 4.89%
C=COCCNC(=S)Nc1ccccc1 0.904%
O=C(NCCCN1CCOCC1)C(Sc1ccccc1)c1ccccc1 (stereo not given) 6.12%
Cn1c(C(=O)N2CCN(c3ncccn3)CC2)cc2c(=O)n(C)c3ccccc3c21 -6.48%
Cc1nnc(NC(=O)c2c(-c3ccccc3)noc2C)s1 7.02%
CCOC(=O)C1=C(N)Oc2cc(O)ccc2C1c1cccc([N+](=O)[O-])c1 (stereo not given) -1.98%
Cc1ccccc1OCC(=O)OCC(=O)Nc1ccc(N2CCOCC2)cc1 -5.04%
